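1) Cells in 96-well plates. 2) Compound, 48 h, 5 concentrations. 3) Linear interpolation between surrounding doses. 4) Unreached endpoint = highest concentration. GI50 marks 50% less growth.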 Calls of active or inactive are those of the source. Cut-off read from the data, not from the text of the source: active = GI50 up to about 1.1 µM and inactive = higher.
What follows are compounds tested on NCI-H322M (assay: NCI tumour cell line growth inhibition, 48 h).

SMILES | GI50
CC(=O)Oc1ccc2c(C)cc(=O)oc2c1 | inactive: > 100 µM
NCCP(=O)(O)O | inactive: > 100 µM
COc1ccc(CSC2=C(C#N)C(=O)NC3(CCCCC3)S2)cc1 | inactive: 56.8 µM
O=C(CCc1cc(O)cc(O)c1)NCCCNC(=O)CCc1cc(O)cc(O)c1 | inactive: > 100 µM
CCN(CC)CCNc1nc(N)c(C#N)c(C#N)c1C#N | inactive: > 10 µM
CCOC(=O)/C(=C/c1ccc(N(C)C)cc1)N(CC)CC | inactive: > 100 µM
Fc1ccc(OCc2nc3cc(C(F)(F)F)ccc3nc2-c2ccccc2)cc1 | inactive: > 100 µM
Cn1c(-c2ccccc2)cc(-c2cccs2)c1-c1cccs1 | inactive: > 100 µM
Cc1ccc(S(=O)(=O)Nc2ccccc2C(C)(C)C)cc1 | inactive: 23 µM
CCOC(=O)c1c(-c2ccc(OC)c(O)c2)c(C#N)c(=S)n(C2OC(COC(C)=O)C(OC(C)=O)C(OC(C)=O)C2OC(C)=O)c1-c1ccccc1 (configuration not stated) | inactive: > 100 µM
COc1cc(Br)cc2c1O[C@H]1C(=O)CC3CC21CCN3C (some centres not stated) | inactive: > 100 µM
N#CN1CCC=C(c2cc3ccccc3[nH]2)C1 | inactive: 232 µM
CCOC(=O)C(C)(C)Oc1ccc2c(-c3ccccc3)cc(=O)oc2c1 | inactive: > 100 µM
CC(C)OP(=O)(OC(C)C)/C(=N/Nc1ccc([N+](=O)[O-])cc1)Nc1ccc(N/C(=N\Nc2ccc([N+](=O)[O-])cc2)P(=O)(OC(C)C)OC(C)C)cc1 | inactive: > 100 µM
O=C(CSc1nnc(Cc2ccccc2)o1)Nc1ccc([N+](=O)[O-])cc1 | inactive: > 100 µM
C=CC(=O)N1C/C(=C\c2ccc(N(C)C)cc2)C(=O)/C(=C/c2ccc(N(C)C)cc2)C1 | inactive: 98.4 µM
COc1nc(N)c(C(=O)CCl)c(=O)n1C | inactive: 16.7 µM
CN(Cc1ccccc1)c1nc(=[N+](C)C)ss1 | inactive: 63.5 µM
C=CC/C=C/Cc1csc(C(C)(C)C(O)C/C=C/C(=C)CCNC(=O)OC)n1 (configuration not stated) | inactive: > 14.6 µM

SMILES | GI50
O=C(O)CCCc1ccc2c(c1)CC1(C2)Cc2cc3c(cc2C1)CCCC3 | inactive: 33 µM
CCOC(=O)C(CS)NC(=O)CCCCCCCC(=O)NC(CS)C(=O)OCC (configuration not stated) | inactive: > 100 µM
CCOC(=O)C1(C#N)C(C#N)(C#N)C1(C#N)C#N | inactive: > 100 µM
O=C(O)CCCCCCC[C@@H]1S[C@H]1CCCCCCO | inactive: > 100 µM
CSC1=C(C#N)C(=O)N(c2ccc(C)cc2)C(=S)C1C#N (configuration not stated) | inactive: > 100 µM
CC1=C(CO)C(=O)O[C@@H]([C@@H](CO)[C@H]2CCC3C4C[C@@H](O)[C@@]5(O)CC=CC(=O)[C@]5(C)C4CC[C@@]32C)C1 (some centres not stated) | inactive: > 100 µM
COc1cccc(CCN2CCN(CCCc3ccccc3)CC2)c1 | inactive: > 100 µM
CC1=CC(=O)CC(C)(C)C1/C=C/C(C)=C/C=C/C(C)=C/C=C/C=C(C)/C=C/C=C(C)/C=C/C1=C(C)CC(O)CC1(C)C (configuration not stated) | inactive: > 100 µM
O=Cc1ccc(OC[C@H]2COC(=O)N2)cc1 | inactive: > 100 µM
COc1cc(C2c3cc4c(cc3OC(NN)C2C)OCO4)cc(OC)c1OC (configuration not stated) | active: 0.394 µM
Clc1ccc(OCc2nnc(CCCCCCCCc3nnc(COc4ccc(Cl)cc4Cl)o3)o2)c(Cl)c1 | inactive: > 100 µM
COC1O[C@@H]2CCN3C(=O)[C@@H](OC(=O)c4ccc([N+](=O)[O-])cc4)[C@H]1C23 (some centres not stated) | inactive: > 100 µM
NC1CC(=O)c2c1sc(Cl)c2Cl (configuration not stated) | inactive: > 100 µM
CC1(C#N)CC(C)(C)C(/C=C2/CC(C)(C)C(/C=C3/OC(=N)CC3(C)C)=N2)=N1 (configuration not stated) | inactive: 40.6 µM
COc1ccc(/C=C/[N+](=O)[O-])cc1 | inactive: 17.4 µM
[N-]=[N+]=NC1C(Cl)C(=O)NC(=O)N1[C@H]1C[C@H](O)[C@@H](CO)O1 (some centres not stated) | inactive: > 100 µM
Cc1nnc2sc(-c3ccc(N)cc3)nn12 | inactive: > 100 µM
Nc1ccc2c(c1)Cc1ccccc1-2 | inactive: > 100 µM
